The supplement of paper PMC6531468
Some of the results follow. These are enrichments in a pooled selection; single values are uncertain. Each score is taken over the longer molecules that contain the sequence shown.

Tested on: IMP3 KH3-4
Experiment: 6-mer SELEX enrichment z-score vs GST control; IMP3 is the RNA-binding protein IGF2BP3; higher = more enriched by binding
Settings: construct: KH3-4 (377-579); SELEX round: R4
Description: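 SELEX-seq with GST-tagged IMP3 KH3-4 (Pro377-Lys579) and an N40 RNA pool, round 4. 6-mer z-score of sequence-tag enrichment normalised to the corresponding GST SELEX round; RNA k-mers written as DNA (T for U).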

Sequence of IMP3 KH3-4 (chain, as listed by the source): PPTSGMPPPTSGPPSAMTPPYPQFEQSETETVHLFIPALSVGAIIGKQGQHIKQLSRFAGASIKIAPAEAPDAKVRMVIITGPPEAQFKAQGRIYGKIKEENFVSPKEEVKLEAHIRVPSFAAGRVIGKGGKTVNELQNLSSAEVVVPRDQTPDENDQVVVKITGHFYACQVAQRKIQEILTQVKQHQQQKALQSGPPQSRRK

| Sequence | 6-mer SELEX enrichment z-score |
| --- | --- |
| TAATCG | -0.042 |
| GGCACC | -0.148 |
| CTTCCA | -0.008 |
| TTGGCA | 0.193 |
| AGTTTC | -0.18 |
| GCGTAA | -2.6 |
| TTAGTA | 0.361 |
| CGGAGA | 0.082 |
| ACGCCG | -0.631 |
| AGACGG | 0.043 |
| GAGTCT | -0.028 |
| ATAGAA | 2.41 |
| TCGATG | -0.349 |
| CCTAAA | -1.83 |
| AGATTG | 0.681 |
| AGTTCT | 0.135 |
| GATAGC | 0.08 |
| GTGCTT | -0.011 |
| TCTTGC | -0.399 |
| GAAACG | -0.958 |

| Sequence | 6-mer SELEX enrichment z-score |
| --- | --- |
| GGGGGA | 1.12 |
| AAAGCC | -1.73 |
| GTACGG | 0.388 |
| TCCGCT | 0.084 |
| GCGGTA | -0.06 |
| TCGGGA | -0.16 |
| TACACT | 0.856 |
| TCAGCA | -0.006 |
| AATCTT | 0.191 |
| GTAACA | 0.17 |
| ATACGT | 0.228 |
| TCACCA | -0.089 |
| GTGTAC | -0.559 |
| CACCTA | -1.08 |
| CTCTTG | -0.483 |
| GTCCAG | -0.23 |
| CATATA | 2.89 |
| GGAGTG | 0.187 |
| GATCAC | 0.14 |
| CGGTTG | -0.044 |
